In PubChem BioAssay AID602313 (National Center for Advancing Translational Sciences (NCATS), 2012):
The campaign covered roughly 390,000 compounds. About 760 (0.19%) were called active. About 3% were inconclusive and are not listed. The call rests on the fitted dose curve; in most records, active means well fitted inhibition curve with a large enough effect; inconclusive means small, poorly fitted or top-dose-only effect; inactive means flat fitted curve, though single readings scatter. The list shows a part of the results, in another mix than the full data.

assay: qHTS for Inhibitors of Vif-A3F Interactions: qHTS; conditions: HeLa A3F-eYFP + Vif (tagged APOBEC3F with the HIV-1 protein that degrades it), YFP fluorescence increase; series mostly up to 46.1 µM; activity, negative = active: at the top concentration; further: nearly all actives have a fitted effect of over 65% in size; on activity, negative = active: % of control where 0% means no effect
From the text: The recent discovery and characterization of host restriction factors, which provide a potent defense to invading retroviruses, has provided new targets for antiviral drug development. APOBEC3G (A3G) and APOBEC3F (A3F) are potent cytidine deaminases that block HIV-1 replication; HIV-1 expresses the Vif protein, which counteracts A3G and A3F by binding to them and inducing their proteasomal degradation. The Vif-A3G and Vif-A3F interactions provide two potential targets for development of small molecules which can interfere with the ability of Vif to degrade A3G or A3F. […] To identify inhibitors that can interfere with Vif mediated degradation of A3G and A3F, we have developed Hela cell lines that stably express A3G or A3F tagged with eYFP at the C-terminal end (A3G-eYFP or A3F-eYFP, respectively) and Vif. In the absence of an inhibitor, Vif induces degradation of A3G-eYFP and A3F-eYFP, and the cells are not fluorescent. In the presence of an inhibitor, it is expected that Vif will be unable to degrade A3G-eYFP and/or A3F-eYFP, resulting in an increase in yellow fluorescence. In this assays Vif A3F was screened against the Molecular Library Small Molecule Repository (MLSMR). NIH Chemical Genomics Center [NCGC] NIH Molecular Libraries Probe Centers Network [MLPCN] MLPCN Grant: MH093245 Assay Submitter (PI): Vinay Pathak, National Cancer Institute
5 uL of 700 cells/well of A3F-YFP cells are dispensed into black, clear bottom plates. The plates are incubated overnight at 37 deg C. 23 nL of compounds are added by pintool. The plates are incubated overnight at 37 deg C and then read on the TTP Acumen (Ex 488/ Em 500-530).
Potency means the concentration at half of the fitted maximal effect.

| SMILES | activity, negative = active | Potency |
| --- | --- | --- |
| COc1cc(OC)c(OC)cc1/C=C1\C(=O)NC(=O)N(Cc2ccccc2)C1=O | inactive: -69.5% |  |
| O=C1NC(=O)N(CCc2ccc(F)cc2)C(=O)/C1=C/C=C/c1ccccc1 | inactive: -0.343% |  |
| CCOc1ccc(CNC(=O)c2cccc(Nc3nc4ccccc4n4nnnc34)c2)cc1OC |  | active: 12.6 µM |
| CN1CCC2(CC1)C(C#N)=C(N)NC(S)=C2C#N | inactive: -1.97% |  |
| C=C(C)[C@@H]1CC[C@]2(C(=O)O)CC[C@]3(C)C(CCC4[C@@]5(C)CC[C@H](O)C(C)(C)C5CC[C@]43C)C12 (some centres not stated) | inactive: 2.6% |  |
| Cc1ccc(/C=C2\C(=O)NC(=O)N(CCc3ccc(F)cc3)C2=O)s1 | inactive: -14.2% |  |
| ClCCN(CCCl)c1ccc(C=Cc2ccncn2)cc1 |  | active: 22.4 µM |
| Cn1cccc1/C=C1\C(=O)NC(=O)N(Cc2ccccc2)C1=O | inactive: -13.6% |  |
| CC(C)C[C@H]1C(=O)N2CCCC2[C@]2(O)O[C@](NC(=O)[C@@H]3C=C4c5cccc6[nH]cc(c56)CC4N(C)C3)(C(C)C)C(=O)N12 (some centres not stated) | inactive: -17.3% |  |
| CC(=O)C1CCC2C3CCC4CC(O)CCC4(C)C3CCC12C (configuration not stated) | inactive: -2.51% |  |
| Cc1ccc(N2C(=O)NC(=O)/C(=C\C=C\c3ccco3)C2=O)cc1 | inactive: -15.2% |  |
| CCOC(=O)c1ccc(Nc2nc(C)cc(C)n2)cc1 | inactive: 1.65% |  |
| N#C/C(=C(/O)c1ccc(S(=O)(=O)N(CCCl)CCCl)cc1)c1nc2ccccc2[nH]1 | inactive: 1.54% |  |
| CCN(CC)c1ccc(/C=C2\C(=O)NC(=O)N(Cc3ccco3)C2=O)cc1 | inactive: -23.2% |  |
| Cc1cc(C)cc(N2C(=O)NC(=O)/C(=C\c3cccn3-c3ccc(Cl)cc3)C2=O)c1 | inactive: -1.53% |  |
| CN1CCN(c2ccc(/C=C3\C(=O)NC(=S)N(c4cccc(Br)c4)C3=O)o2)CC1 |  | active: 25.1 µM |
| C=C1C(=O)O[C@@H]2C[C@@H](C)[C@@H]3C=CC(=O)[C@@]3(C)[C@@H](O)[C@H]12 | inactive: 3.14% |  |
| COc1ccc(N2C(=O)NC(=O)/C(=C/c3ccc([N+](=O)[O-])s3)C2=O)cc1 | inactive: -12.9% |  |
| COc1cccc(CCNCc2ccc(SC)cc2)c1 | inactive: 20.2% |  |
| O=c1[nH]c(O)c(/C=C2\C=Nc3ccc(OCc4ccccc4)cc32)c(=O)[nH]1 |  | active: 12.6 µM |
| O=C1NC(=O)N(c2ccccc2)C(=O)/C1=C/c1ccc([N+](=O)[O-])s1 | inactive: 1.11% |  |
| O=C1NC(=O)N(Cc2ccccc2)C(=O)/C1=C\N1CCCc2ccccc21 | inactive: -22.8% |  |
